Here are results for 83 variants from the RNAGym collection of RNA variant scans (doi:10.7554/elife.90254).

The source gives no read counts; variants with many changes may rest on few reads.

B1: OR4K15 (parent)
chain: GUUAACGGUCAUAGGCCAUGGAAACUAGGAGCACCAUUUCGCUGCCAGUGAAGAAAUGAACAAAGAAAAUCUGGGCCAGGCAGGCAUCAAAAGAAAUAGUCUUGCGCUCAACCAGAAAGUCUGUAAUCAUUUUAAGGGUA

The series covers variants of B1. Nature of the series: self-cleavage, relative activity (ratio to wild type); higher = more cleavage; in vitro, sequencing; the parent is a self-cleaving ribozyme.
Regarding A18G A90G A98G U102A C121A, the self-cleavage came out at 0.13.

On to A18G A69G A86G A96G, for which the self-cleavage was 1.78. For A18G A27G A33G A98G, the self-cleavage stood at 1.94. Then A18G A55G U139C, with 1.13. Take A18G A22G A66U U132C: the self-cleavage was determined as 0.49. C17A U39C A82G: the self-cleavage amounted to 0.47. The figure for A18G G29U A94G A96G is 1.46; for A18G U37C A67G it is 1.66; for A18G A23G U38C U39C U43C A89U U132C it is 1.1.

For A18G A117G U122A, the self-cleavage was 1.13. A18G U37C G41A U103C A134G: the self-cleavage came to 0.93.

As for A18G G41C A111G, the self-cleavage came out at 0.04.

With A18G A27G U49A A82G C105A, the self-cleavage was found to be 0.06. For the variant A18G A63G U120C U127C, the self-cleavage turned out to be 0.69. Take C17U A52G U120C U127C A129G: the self-cleavage is 0.06. In the case of A18G A33G U38C A118U U132C, the self-cleavage amounted to 0.23. Regarding A18G U37C A118G U122C, the self-cleavage amounted to 1.28. The figure for A18G A55G A116G U130C is 0.97. As to A18G U19C A82U U120C, the self-cleavage worked out at 0.13. For A18G A60U A135G, the self-cleavage was found to be 1.34.

On to A18G U43C U131C, for which the self-cleavage came to 1.83. C17U U57C A111G: the self-cleavage is 0.03.

For A18G A116G A125G, the self-cleavage stood at 0.32. With A18G A91G A117G, the self-cleavage is 1.6. With C17A A55G U108A U120C, the self-cleavage was determined as 0.01.

As for A18G U39C A90G U122A, the self-cleavage amounted to 0.87.

For A18G A36G A51G U120C, the self-cleavage was 1.07. On to A18G A22U A52C U108C, for which the self-cleavage stood at 0.03. With A18G A23G U37C A82G, the self-cleavage was 0.23. For A18G A55U A67G U100A A118G U122C, the self-cleavage was 0.47. The figure for A18G U43C A64G A78G is 0.16; for A18G U49A A67U A98G A140U it is 0.53; for A18G U38A A110U it is 2.47. As for A18G A33G A59G A110G, the self-cleavage came out at 0.27. For A18G C40U A51G A63G C76U, the self-cleavage was 0.09.

For A18G U38C C40A, the self-cleavage turned out to be 0.45.

On to A18G A62G A111G U120C, for which the self-cleavage was 0.04. Consider A18G A22G U124C, for which the self-cleavage amounted to 0.82. Regarding A18G U38A A91U, the self-cleavage is 1.12. For the variant C17U C109U A135G, the self-cleavage came to 0.45. Take A18G A33G A68G A82U: the self-cleavage worked out at 0.1.

As for A18G U37C A116G, the self-cleavage was 1.04. For the variant A18G A67G A78G, the self-cleavage was determined as 0.5.

For the variant A18G A51G A55G U72C C77A U103C, the self-cleavage amounted to 0.27. Consider A18G C88A A116U, for which the self-cleavage came out at 0.53. As to A18G U39A A62G U103C A125G, the self-cleavage worked out at 0.38. With A18G A54G A78U A90C A91G, the self-cleavage is 0.16. In the case of A18G A56G U124C, the self-cleavage was found to be 1.39. The figure for A18G U19C A23G A68G is 0.77; for A18G U39C U57G A92G it is 0.84. With A18C A55G A63G, the self-cleavage is 0.82.

A18G A56G A63G A90G U124C: the self-cleavage worked out at 1.29.

Regarding A18C A22C A89G, the self-cleavage was found to be 1.06. For A18G A51G A54G A82U C113U U122C, the self-cleavage came to 0.01. On to C17U A111U A114U, for which the self-cleavage turned out to be 0.02. Consider A18G A23G C88A, for which the self-cleavage was 0.65. Consider A18G A33G A62G A129G, for which the self-cleavage was found to be 1.63.

Regarding A18G A33U A66G A94U A111G A116G, the self-cleavage stood at 0.05. Consider A18G A59G A68U A69G A116G, for which the self-cleavage was found to be 0.35. Then A18G A22U A60G A68G A69G G104A A117G, with 0.11. As to C17U U39C A51U A55G A92U, the self-cleavage is 1.11. Take C17U A23G A52G A63U: the self-cleavage worked out at 0.42.

In the case of C17U U124C U132C, the self-cleavage was 0.73. Then C17A A23G A110U, with 1.11. For A18G A62G U72C, the self-cleavage was found to be 0.27. Regarding A18G A23U U70C, the self-cleavage came to 0.11. On to A18G A54G A63G, for which the self-cleavage amounted to 1.78. With A18G A27U C34U U102C C105A, the self-cleavage came out at 0.03. With A18G U37C U43G A56G A91G, the self-cleavage was 0.49. For A18G A24G A52G U57C U102C, the self-cleavage amounted to 0.66. Take A18C A59G A118G: the self-cleavage was determined as 0.4.

For the variant C17U G44A A55G, the self-cleavage turned out to be 1.32. Then A18G A59U A111G U127C, with 0.01; and A18G A67G A78G G99A C101A, with 0.1; and A18C A23C A52G G99A, with 0.49. Turning to A18G G48U A51U, the self-cleavage was 1.65. For A18G A52U A56G, the self-cleavage is 0.93. The figure for A18G A68C A96G A134G is 2.13; for A18C A98G U132C it is 0.29. In the case of A18G A66G A96G C128U, the self-cleavage amounted to 1.19. Turning to A18G A66U U87C A89G, the self-cleavage was 1.58.

In the case of A18G G28U A54G A111G, the self-cleavage was found to be 0.01. Turning to A18G A52G U87C A116G, the self-cleavage amounted to 0.34.
